Measurements published in the supplement of paper PMC11417369.
± gives the standard deviation of the averaged measurements. The list shows a part of the results.

tested on: PfAP2-EXP AP2 domain (GST-tagged); assay: gcPBM binding intensity (ln(normalized median fluorescence intensity)); higher = stronger DNA binding
Outline: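 Using an Agilent 4 × 180k array, primer-extended double-stranded 36-bp intergenic genomic probes and negative controls were exposed for 1 h to GST-fused P. falciparum DNA-binding domains expressed in E. coli. Binding was carried out in 1× PBS with 1% milk, 0.2 mg/ml BSA, 0.5% salmon testes DNA and 0.03% Triton X-100, and protein was detected with Alexa488 anti-GST antibody and a 488 nm scan. Binding intensity is the highest Masliner-normalised natural-log median intensity across replicate spots of either probe orientation.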

| Sequence | gcPBM binding intensity (ln) |
| --- | --- |
| ATCTCTGTAAAGATCACACATATATTTTTGTTATAT [CACACA_site5094] | 8.48 ± 0.35 |
| TTATTACACACATATGTGCACATATAAAAGTACACG [GTGCAC_site9581] | 8.97 ± 0.25 |
| CAGCTCTTAAAAATTACACACATATACACATATATA [CACACA_site9073] | 8.29 ± 0.4 |
| TATAAATACAATTCACAAGAGATCATGTATCAAACC [CACACA_negctrl_site1219] | 8.41 ± 0.4 |
| TATATATATATATATACACACATTTTTAATGATAAA [CACACA_site2695] | 10.1 ± 0.37 |
| TTTCTAGTTACAAGAGTGCATAATATATAAAAATAA [GTGCAC_site9874] | 8.85 |
| ATATAATAAATATGTTGTACTATAAAAAATAGCCAT [XGTACX_site4710] | 8.36 ± 0.092 |
| TTAGTCGAATGATGTACACACATACAAAACATTTAT [CACACA_site6076] | 8.63 ± 0.39 |
| ACTAATTACTATAAAACACACATATATATATATATA [CACACA_site2591] | 10.2 ± 0.29 |
| AAAAAAAAAAAAAAAAAAAAAAAAAAAAGAAAAAAG [GTGCAC_negctrl_site583] | 8.905 ± 0.049 |
| AGAAAATATTTTGGTTGTACAGGCGATTTATATGTT [XGTACX_site7253] | 8.79 ± 0.51 |
| AAAAATTCTTGGCGCACACACTTTAAAAATTAAAAA [CACACA_site4498] | 8.7 ± 0.33 |
| TTATATTTTCAGAATAGTACACATATATACATATAT [XGTACX_site2519] | 8.31 ± 0.24 |
| TTATAAAAGAAAAAAAAAAAAAAAAAAAAAAAAAAA [CACACA_negctrl_site1006] | 7.89 ± 0.43 |
| GATCATTTAAAATAAGTAATATTTTTTTTACTTTTG [TGCATGCA_negctrl_site602] | 8.03 ± 0.28 |
| TTTAGCCAATTTTTAAAGTTTAAAAAAGAAAAAAGA [CACACA_negctrl_site118] | 8.38 ± 0.39 |
| TATTAAAAATACATATGTACTCATAGCATAAAACAT [XGTACX_site8686] | 8.73 ± 0.36 |
| TTTTGGCTGATCAGATTTAACAAAAAAAAAAAAAAA [CACACA_negctrl_site671] | 8.09 ± 0.54 |
| TGTGAAAATTATGGGGCATGCAATACTTTAAAAATA [TGCATGCA_site653] | 9.28 ± 0.57 |
| CAAATGTAGAAAATGTGTACATAAAAAAAAAAAAAA [XGTACX_site8276] | 8.37 ± 0.55 |
| AGTCAATTTTGTGTGTCAACATTTATATAAAGAATG [TGCATGCA_negctrl_site400] | 8.54 ± 0.38 |
| CCTTCAATTTACATAACACACATTTAACCATAATAA [CACACA_site2394] | 8.56 ± 0.36 |
| CAAATATATATTTTCTGTACAAATACAATTAATACT [XGTACX_site2694] | 8.5 ± 0.4 |
| AGATATTAAAACGTTACACACATTTATATATCTTCT [CACACA_site908] | 8.48 ± 0.46 |
| TTCCAAAATTGCATTTGTACCCAAAAAATGTATACG [XGTACX_site7680] | 8.59 ± 0.41 |
| GTAAGTTTGAATACACGTACAAATTTATTAAAGTCC [XGTACX_site6722] | 8.81 ± 0.35 |
| ATATTATTAATTTATAGTACTCATTTTTTTTTTTTT [XGTACX_site3536] | 8.45 ± 0.33 |
| ATCAGTCGGCAGGACAGTACACAGTAGCCAGGAAAT [XGTACX_site2003] | 8.82 ± 0.52 |

| Sequence | gcPBM binding intensity (ln) |
| --- | --- |
| GCTTTTTATTTTTACCGTACATTATATATGTATATA [XGTACX_site808] | 9.17 ± 0.37 |
| AACGCGAACAATTTATAGATAACTTTTAATTATTAT [GTGCAC_negctrl_site179] | 8.31 ± 0.44 |
| ATATATATATTTGTGTGTACATATTAATTTGTATGA [XGTACX_site4047] | 9.45 ± 0.19 |
| ATACATTTTTGTAAAAGTACATATACATGCCCCCTT [XGTACX_site1367] | 9.62 ± 0.19 |
| ATGGTATATCCAAATAAACACACGTAAATACATAAA [CACACA_site1682] | 8.69 ± 0.45 |
| ATTTAATACAAATACACACACAAATATATACATATA [CACACA_site3747] | 8.55 ± 0.54 |
| TATATATATATAAACTGTACTATTTTATGTTAAAAG [XGTACX_site3630] | 9.96 ± 0.13 |
| AATATATATATAGGATGTACACATAATTCAAATACA [XGTACX_site6368] | 8.8 ± 0.4 |
| AGTAGATATAATTATAGTACTTTGATGTTTTCTTTA [XGTACX_site5038] | 8.39 ± 0.45 |
| TGGCAAAATAGGCACACACACATATACATCTATATT [CACACA_site6626] | 8.6 ± 0.45 |
| ATATGATAAATTATATGTACTTAAAATATATTATAA [XGTACX_site5904] | 8.26 ± 0.18 |
| TTTTTTTTTAGAAAAACATGCATGTCCTAAAAATAA [TGCATGCA_site684] | 8.89 ± 0.27 |
| AAAAAAAAAAAAAAAAAAAAAAAAACAATGAATTTA [GTGCAC_negctrl_site698] | 9.15 ± 0.14 |
| CACAGAAATAGAGATACACACACACCGATATTTATG [CACACA_site9313] | 8.68 ± 0.44 |
| ATAGTTATTTTATAGCGTACACAATAAATATATAAA [XGTACX_site4445] | 8.63 ± 0.28 |
| TTTTTCTATATTTTCTTTTATAAAATATATAATTTT [GTGCAC_negctrl_site345] | 8.32 ± 0.4 |
| GTCATATATTATAATAGTACATAAATAATTGATGCC [XGTACX_site3567] | 8.53 ± 0.085 |
| TAAACAGTATGCAACGCATGCGTTGTTATATATAAA [TGCATGCA_site232] | 9.2 ± 0.34 |
| AAATTTTCTTTTAAGTGTACGAAATTTAGTATTTCA [XGTACX_site7819] | 8.38 ± 0.44 |
| ATGTATTTATTATTTAGTACACATTATTTTCTTATA [XGTACX_site6365] | 8.68 ± 0.2 |
| TATATATAAATATATACACACATGAAAATAAATAAA [CACACA_site2514] | 8.51 ± 0.4 |
| TTTTTGTTTGTTCACGACTACATTATGTCATAAATG [CACACA_negctrl_site597] | 8.64 ± 0.4 |
| ATTTTTTTTTTTTTTTTTTTATTCTTAATTCATATA [CACACA_negctrl_site342] | 8.24 ± 0.5 |
| AGCATTTTAAAAGAAAAAAAAAAAAAAAAAAAAATA [GTGCAC_negctrl_site723] | 7.97 ± 0.51 |
| ATATATATATATTATACACACAAAAATATTTTGTAT [CACACA_site266] | 9.65 ± 0.26 |
| ATCTATGTTCCTTTTACACACATAATCTTTTTTTTA [CACACA_site5468] | 9.02 ± 0.45 |
| CGTGGGAGCAGACACACACACACACGCATATTTATA [CACACA_site6290] | 8.42 ± 0.51 |
